Test results taken from the supplement of paper PMC8512760.
The other results are listed elsewhere or left out. Many values rest on one well or one pass, so single values are uncertain.

Assays:
Experiment in all cases: cell viability relative to vehicle (% of vehicle); basal-like triple-negative breast cancer lines; higher = less cytotoxic
Details in all cases: 10 µM; 72 h
HCC-1143 = test system: HCC-1143
HCC-1187 = test system: HCC-1187
MDA-468 = test system: MDA-468
SUM-149 = test system: SUM-149
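Also: stably firefly luciferase-GFP labeled cells in 96-well plates, viability read as luciferase photon flux after d-luciferin addition, treated wells normalized to vehicle wells, single-dose high-throughput screen.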

Compound	cell viability (HCC-1143)	cell viability (HCC-1187)	cell viability (MDA-468)	cell viability (SUM-149)
CNCC(O)C(O)C(O)C(O)CO (configuration not stated) [Meglumine]	75.9	108	108	95.8
C=CC[N+]1(C2CC3C4CCC5CC(O)C(N6CCOCC6)CC5(C)C4CCC3(C)C2OC(C)=O)CCCC1.[Br-] (configuration not stated) [Rocuronium Bromide]	103	99.8	99.4	87.8
CCN(CC)CCOC(=O)C1(C2CCCCC2)CCCCC1.Cl [Dicyclomine HCl]	86.9	92.1	103	96.7
CC(C)(C)NCC(O)c1ccc(O)c(CO)c1.O=S(=O)(O)O (configuration not stated) [Salbutamol Sulfate]	74.5	94.6	150	93.2
CO/C(O)=N/[C@H](C(=O)N1CC2(CC2)C[C@H]1c1ncc(-c2ccc3c(c2)C(F)(F)c2cc(-c4ccc5nc([C@@H]6[C@H]7CC[C@H](C7)N6C(=O)[C@@H](/N=C(\O)OC)C(C)C)[nH]c5c4)ccc2-3)[nH]1)C(C)C [Ledipasvir]	112	112	104	148
CC12C=CC(=O)C=C1CCC1C2C(O)CC2(C)C1CCC2(O)C(=O)CO (configuration not stated) [Prednisolone]	127	111	151	169
CCCCCCCCCC(=O)NC(Cc1c[nH]c2ccccc12)C(=O)NC(CC(N)=O)C(=O)NC(CC(=O)O)C(=O)NC1C(=O)NCC(=O)NC(CCCN)C(=O)NC(CC(=O)O)C(=O)NC(C)C(=O)NC(CC(=O)O)C(=O)NCC(=O)NC(CO)C(=O)NC(C(C)CC(=O)O)C(=O)NC(CC(=O)c2ccccc2N)C(=O)OC1C (configuration not stated) [Daptomycin]	105	106	99.7	87.4
CC(=O)NCC1CN(c2ccc(N3CCOCC3)c(F)c2)C(=O)O1 (configuration not stated) [Linezolid]	83.3	89.3	52.6	122
Clc1ccccc1C(c1ccccc1)(c1ccccc1)n1ccnc1 [Clotrimazole]	79.9	101	105	90.4
O=C(Nc1c(Cl)cncc1Cl)c1ccc(OC(F)F)c(OCC2CC2)c1 [Roflumilast]	92.4	80.9	90.3	132
CC1=C(C(=O)O)N2C(=O)C(NC(=O)C(N)c3ccccc3)C2SC1 (configuration not stated) [Cephalexin]	65.4	89.8	98.7	67.6
N=C(N)NCCCC[C@@H]1NC(=O)CCSSC[C@@H](C(N)=O)NC(=O)[C@@H]2CCCN2C(=O)[C@H](Cc2c[nH]c3ccccc23)NC(=O)[C@H](CC(=O)O)NC(=O)CNC1=O [Eptifibatide]	117	107	105	106
C#CC1(O)CCC2C3CCc4cc(O)ccc4C3CCC21C (configuration not stated) [Ethinyl Estradiol]	85	84.5	113	114
CNCCCC12CCC(c3ccccc31)c1ccccc12.Cl [Maprotiline HCl]	78.8	71.2	101	70.9
COCCCOc1cc(CC(CC(N)C(O)CC(C(=O)NCC(C)(C)C(N)=O)C(C)C)C(C)C)ccc1OC.COCCCOc1cc(CC(CC(N)C(O)CC(C(=O)NCC(C)(C)C(N)=O)C(C)C)C(C)C)ccc1OC.O=C(O)C=CC(=O)O (configuration not stated) [Aliskiren Hemifumarate]	97.2	117	95.2	106
COc1ccc2[n-]c(S(=O)Cc3ncc(C)c(OC)c3C)nc2c1.COc1ccc2[n-]c(S(=O)Cc3ncc(C)c(OC)c3C)nc2c1.[Mg+2] (configuration not stated) [Esomeprazole Magnesium]	125	82.3	101	137
Cc1cc(Nc2ncc(Cl)c(Nc3ccccc3S(=O)(=O)C(C)C)n2)c(OC(C)C)cc1C1CCNCC1	20	22.3	18.3	32
CC(C)NCC(O)c1ccc(NS(C)(=O)=O)cc1.Cl (configuration not stated) [Sotalol hydrochloride]	112	110	110	133
COc1cccc(-c2ccc(NC(=O)C3=C(C(=O)O)CCC3)c(F)c2)c1 [Vidofludimus]	107	60.4	150	116
Cc1nc2n(c(=O)c1CCN1CCC(c3noc4cc(F)ccc34)CC1)CCCC2O (configuration not stated) [Paliperidone]	78.4	94.3	127	97
CCNC1CC(N)C(OC2OC(CN)=CCC2N)C(O)C1OC1OCC(C)(O)C(NC)C1O.CCNC1CC(N)C(OC2OC(CN)=CCC2N)C(O)C1OC1OCC(C)(O)C(NC)C1O.O=S(=O)(O)O.O=S(=O)(O)O.O=S(=O)(O)O.O=S(=O)(O)O.O=S(=O)(O)O (configuration not stated) [Netilmicin Sulfate]	69.4	77.5	94.9	81.7
CC(C)NCC(O)COc1ccc(COCCOC(C)C)cc1.O=C(O)C=CC(=O)O (configuration not stated) [Bisoprolol fumarate]	79	102	102	109
Cl.Clc1ccccc1CN1CCc2sccc2C1 [Ticlopidine HCl]	76.1	72	101	87.9
COc1ccccc1Oc1c(NS(=O)(=O)c2ccc(C(C)(C)C)cc2)nc(-c2ncccn2)nc1OCCO.O [Bosentan Hydrate]	76.4	87.2	91.9	106

Compound	cell viability (HCC-1143)	cell viability (HCC-1187)	cell viability (MDA-468)	cell viability (SUM-149)
CC1(C)CCC(C)(C)c2cc(NC(=O)c3ccc(C(=O)O)cc3)ccc21 [Tamibarotene]	90.9	123	93.9	122
Br.CN(C)CCC[C@]1(c2ccc(F)cc2)OCc2cc(C#N)ccc21 [Citalopram hydrobromide]	86.7	102	134	113
CC1CCN(C(=O)CC#N)CC1N(C)c1ncnc2[nH]ccc12 (configuration not stated)	73.6	58.6	56.3	101
OCC1OC(O)C(O)C(O)C1O [Dextrose (D-glucose)]	123	123	114	105
CCCCCCOC(=O)N=C(N)c1ccc(NCc2nc3cc(C(=O)N(CCC(=O)OCC)c4ccccn4)ccc3n2C)cc1	78.5	109	99.4	87.9
CC(=O)OC12COC1CC(O)C1(C)C(=O)C(O)C3=C(C)C(OC(=O)C(O)C(NC(=O)OC(C)(C)C)c4ccccc4)CC(O)(C(OC(=O)c4ccccc4)C21)C3(C)C.O.O.O (configuration not stated) [Docetaxel Trihydrate]	77.2	37.3	83	137
O=C(C=CC=Cc1ccc2c(c1)OCO2)N1CCCCC1 [Piperine]	165	105	169	170
CC1CCc2c(N3CCC(O)CC3)c(F)cc3c(=O)c(C(=O)O)cn1c23 (configuration not stated) [Nadifloxacin]	69.3	85.6	89.7	120
CC(C)NCC(O)COc1cccc2ccccc12.Cl (configuration not stated) [Propranolol HCl]	77.9	102	113	94.6
Cc1cn(C2CC(N=[N+]=[N-])C(CO)O2)c(=O)[nH]c1=O (configuration not stated) [Zidovudine]	64.7	93.4	105	98.3
C=CCc1cc(OC)c(O)c(C(=O)NCCO)c1 [Alibendol]	78.5	95.3	123	129
NC1CCCCC1N.O=C([O-])C(=O)[O-].[Pt+2] (configuration not stated) [Oxaliplatin]	75.5	68.6	77.4	158
Cc1cnc(NC(=O)C2=C(O)c3ccccc3S(=O)(=O)N2C)s1 [Meloxicam (Mobic)]	110	92.8	112	116
Cc1cc2c(cc1S(N)(=O)=O)S(=O)(=O)CCC2 [Meticrane]	64.8	86.6	106	106
CCOc1cc2ncc(C#N)c(Nc3ccc(OCc4ccccn4)c(Cl)c3)c2cc1NC(=O)C=CCN(C)C [Neratinib (HKI-272)]	28.4	42.2	24.6	35
NS(=O)(=O)NCC/N=C1\NON\C1=C(\N=O)Nc1ccc(F)c(Br)c1	126	105	127	125
CC(=O)Nc1ncc([N+](=O)[O-])s1 [Nithiamide]	70.2	83.2	112	88.4
COc1cc(OC)c(C(=O)CCCN2CCCC2)c(OC)c1.Cl [Buflomedil HCl]	77.2	82.4	107	103
CC(Nc1ncnc2nc[nH]c12)c1cc2cccc(Cl)c2c(=O)n1-c1ccccc1 (configuration not stated)	92.4	75.9	52.4	85.2
CCN(CCCc1ccccc1)CCCc1ccccc1.O=C(O)CC(O)(CC(=O)O)C(=O)O [Alverine Citrate]	82.5	88	102	90.7
CC(C)C1=CC(=C2NNC(=O)N2c2ccc3c(ccn3C)c2)C(=O)C=C1O [Ganetespib (STA-9090)]	51.1	72.9	45.8	46.5
S=C(NCc1ccc2c(c1)OCO2)N1CCN(c2ncnc3c2oc2ccccc23)CC1 [Amuvatinib (MP-470, HPK 56)]	73.5	84.8	71.4	114
Cn1cc[nH]c1=S [Methimazole]	103	132	90.8	107
CCOC(=O)CCC(=O)OC1C(OC2C(C)C(OC3CC(C)(OC)C(O)C(C)O3)C(C)C(=O)OC(CC)C(C)(O)C(O)C(C)C(=O)C(C)CC2(C)O)OC(C)CC1N(C)C (configuration not stated) [Erythromycin Ethylsuccinate]	90.6	86.7	108	104
